This is one part of the list. Cut-off read from the data, not from the text of the source: active = 3.2 or more and inactive = the rest. Only a few entries rise above the background.
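Note: displayed peptides selected on beads carrying the immobilized SH2 domain, with library peptides lacking any tyrosine serving as negative controls.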

One assay concerns the target SHP2 C-SH2 domain E139D. In words: enrichment score (SH2-bound / input frequency) (ratio); bacterial display of known human phosphotyrosine sites (pTyr-Var adds point mutants) read by sequencing; higher = stronger binding; tyrosines were phosphorylated by kinases first. The settings on record: peptide library: pTyr-Var.
Consider SWDKRYCEAGF [ITGA2B_Y197], for which the enrichment score is inactive: 0.56.
The same measure, in the same setting: the result for DISEPYKVYRI [IRF8_Y107] reads inactive: 0.55; that for PLFRVYGLESL [INSR_Y94_L89P], inactive: 1.04; that for ARLEYYENEKK [IRS1_Y47], inactive: 0.773.
On the same count and under the same terms, the result for FCRITYDIFPF [INTS13_Y67_M66T_YF] reads inactive: 0.983.
Still for that read-out and setting: the result for EVGRVYLFLQP [ITGA2B_Y360] reads inactive: 0.503; that for IMITDYLLLFR [INSR_Y87], inactive: 2.51.
As to PESCLYKESWL [IQGAP2_Y630], the enrichment score was inactive: 0.861.
On the same count and under the same terms, the result for FQQLFYLLQTN [IQGAP2_Y890_YF] reads active: 3.54; that for RSHLPYDVTPE [IQGAP3_Y1098], inactive: 0.695; that for PESCLYKESWI [IQGAP2_Y630_L635I], inactive: 1.03.
On the same count and under the same terms, the result for EFNLMYDGAKE [IRF6_Y97_T100A] reads inactive: 0.89.
Still for that read-out and setting: the result for FQQLFYLLQIN [IQGAP2_Y890_T894I_YF] reads active: 3.89; that for SSNPEYLSASD [INSR_Y999], inactive: 0.473.
As for RHIEKYVDQGK [IRAK3_Y61], the enrichment score is inactive: 1.19.
The same measure, in the same setting: the result for KVGRVYLFLQP [ITGA2B_Y360_E355K] reads inactive: 1.2; that for EPYEVYRIVPE [IRF8_Y110_K108E], inactive: 1.05.
As for VSLLPYFPAIM [IPO4_Y518_A513V], the enrichment score was inactive: 1.45.

Another assay deals with SHP2 C-SH2 domain wild-type. The description is as above. The settings on record: peptide library: pTyr-Var.
On to SWDKRYCEAGF [ITGA2B_Y197], for which the enrichment score is inactive: 0.607.
The same measure, in the same setting: the result for DISEPYKVYRI [IRF8_Y107] reads inactive: 0.572.
Consider PLFRVYGLESL [INSR_Y94_L89P], for which the enrichment score was inactive: 1.16.
As to ARLEYYENEKK [IRS1_Y47], the enrichment score was inactive: 0.893.
In the case of FCRITYDIFPF [INTS13_Y67_M66T_YF], the enrichment score was inactive: 1.34.
As for EVGRVYLFLQP [ITGA2B_Y360], the enrichment score is inactive: 0.662.
As for IMITDYLLLFR [INSR_Y87], the enrichment score is inactive: 2.51.
The same measure, in the same setting: the result for PESCLYKESWL [IQGAP2_Y630] reads inactive: 0.817.
For the molecule FQQLFYLLQTN [IQGAP2_Y890_YF], the enrichment score was active: 3.23.
The same measure, in the same setting: the result for RSHLPYDVTPE [IQGAP3_Y1098] reads inactive: 0.617.
Still for that read-out and setting: the result for PESCLYKESWI [IQGAP2_Y630_L635I] reads inactive: 1.19.
Still for that read-out and setting: the result for EFNLMYDGAKE [IRF6_Y97_T100A] reads inactive: 0.78; that for FQQLFYLLQIN [IQGAP2_Y890_T894I_YF], active: 3.37.
For SSNPEYLSASD [INSR_Y999], the enrichment score is inactive: 0.394.
The same measure, in the same setting: the result for RHIEKYVDQGK [IRAK3_Y61] reads inactive: 1.29; that for KVGRVYLFLQP [ITGA2B_Y360_E355K], inactive: 1.66.
The same measure, in the same setting: the result for EPYEVYRIVPE [IRF8_Y110_K108E] reads inactive: 0.944; that for VSLLPYFPAIM [IPO4_Y518_A513V], inactive: 1.51.

The target of the next assay is SHP2 N-SH2 domain L43F. Described as above. The settings on record: peptide library: pTyr-Var.
SWDKRYCEAGF [ITGA2B_Y197]: the enrichment score is inactive: 0.604.
The same measure, in the same setting: the result for DISEPYKVYRI [IRF8_Y107] reads inactive: 0.35; that for PLFRVYGLESL [INSR_Y94_L89P], inactive: 1.25; that for ARLEYYENEKK [IRS1_Y47], inactive: 0.885.
Same read-out and setting: the result for FCRITYDIFPF [INTS13_Y67_M66T_YF] reads inactive: 1.02.
On the same count and under the same terms, the result for EVGRVYLFLQP [ITGA2B_Y360] reads inactive: 0.664.
As for IMITDYLLLFR [INSR_Y87], the enrichment score is inactive: 2.4.
On the same count and under the same terms, the result for PESCLYKESWL [IQGAP2_Y630] reads inactive: 0.94; that for FQQLFYLLQTN [IQGAP2_Y890_YF], active: 3.69.
Same read-out and setting: the result for RSHLPYDVTPE [IQGAP3_Y1098] reads inactive: 0.605.
On the same count and under the same terms, the result for PESCLYKESWI [IQGAP2_Y630_L635I] reads inactive: 0.833; that for EFNLMYDGAKE [IRF6_Y97_T100A], inactive: 0.777; that for FQQLFYLLQIN [IQGAP2_Y890_T894I_YF], active: 3.65.
Take SSNPEYLSASD [INSR_Y999]: the enrichment score is inactive: 0.452.
Still for that read-out and setting: the result for RHIEKYVDQGK [IRAK3_Y61] reads inactive: 1.32; that for KVGRVYLFLQP [ITGA2B_Y360_E355K], inactive: 1.37; that for EPYEVYRIVPE [IRF8_Y110_K108E], inactive: 1.05.
Same read-out and setting: the result for VSLLPYFPAIM [IPO4_Y518_A513V] reads inactive: 1.58.

The next assay has as its target SHP2 N-SH2 domain T42A. The description is as above. The settings on record: peptide library: pTyr-Var.
Regarding SWDKRYCEAGF [ITGA2B_Y197], the enrichment score was inactive: 0.682.
Still for that read-out and setting: the result for DISEPYKVYRI [IRF8_Y107] reads inactive: 0.634.
For the molecule PLFRVYGLESL [INSR_Y94_L89P], the enrichment score is inactive: 0.935.
On to ARLEYYENEKK [IRS1_Y47], for which the enrichment score was inactive: 0.738.
Same read-out and setting: the result for FCRITYDIFPF [INTS13_Y67_M66T_YF] reads inactive: 1.11.
For EVGRVYLFLQP [ITGA2B_Y360], the enrichment score is inactive: 0.578.
Same read-out and setting: the result for IMITDYLLLFR [INSR_Y87] reads inactive: 1.88; that for PESCLYKESWL [IQGAP2_Y630], inactive: 0.805.
Still for that read-out and setting: the result for FQQLFYLLQTN [IQGAP2_Y890_YF] reads inactive: 3.2; that for RSHLPYDVTPE [IQGAP3_Y1098], inactive: 0.679.
Same read-out and setting: the result for PESCLYKESWI [IQGAP2_Y630_L635I] reads inactive: 0.929; that for EFNLMYDGAKE [IRF6_Y97_T100A], inactive: 0.746; that for FQQLFYLLQIN [IQGAP2_Y890_T894I_YF], inactive: 2.94.
Consider SSNPEYLSASD [INSR_Y999], for which the enrichment score is inactive: 0.474.
Turning to RHIEKYVDQGK [IRAK3_Y61], the enrichment score is inactive: 1.12.
Turning to KVGRVYLFLQP [ITGA2B_Y360_E355K], the enrichment score was inactive: 1.04.
For the molecule EPYEVYRIVPE [IRF8_Y110_K108E], the enrichment score is inactive: 0.811.
On to VSLLPYFPAIM [IPO4_Y518_A513V], for which the enrichment score was inactive: 1.36.

The next assay deals with SHP2 N-SH2 domain T52S. The description is as above. The following applies: peptide library: pTyr-Var.
As for SWDKRYCEAGF [ITGA2B_Y197], the enrichment score is inactive: 0.67.
For DISEPYKVYRI [IRF8_Y107], the enrichment score was inactive: 0.713.
As for PLFRVYGLESL [INSR_Y94_L89P], the enrichment score was inactive: 0.908.
Still for that read-out and setting: the result for ARLEYYENEKK [IRS1_Y47] reads inactive: 0.868; that for FCRITYDIFPF [INTS13_Y67_M66T_YF], inactive: 1.19; that for EVGRVYLFLQP [ITGA2B_Y360], inactive: 0.626.
On the same count and under the same terms, the result for IMITDYLLLFR [INSR_Y87] reads inactive: 2.27; that for PESCLYKESWL [IQGAP2_Y630], inactive: 0.604.
Take FQQLFYLLQTN [IQGAP2_Y890_YF]: the enrichment score is inactive: 3.12.
For RSHLPYDVTPE [IQGAP3_Y1098], the enrichment score was inactive: 0.623.
In the case of PESCLYKESWI [IQGAP2_Y630_L635I], the enrichment score was inactive: 0.943.
Still for that read-out and setting: the result for EFNLMYDGAKE [IRF6_Y97_T100A] reads inactive: 0.696.
As for FQQLFYLLQIN [IQGAP2_Y890_T894I_YF], the enrichment score is active: 3.46.
SSNPEYLSASD [INSR_Y999]: the enrichment score is inactive: 0.415.
Same read-out and setting: the result for RHIEKYVDQGK [IRAK3_Y61] reads inactive: 1.02; that for KVGRVYLFLQP [ITGA2B_Y360_E355K], inactive: 1.27.
Still for that read-out and setting: the result for EPYEVYRIVPE [IRF8_Y110_K108E] reads inactive: 0.961.
Still for that read-out and setting: the result for VSLLPYFPAIM [IPO4_Y518_A513V] reads inactive: 1.61.

In the next assay the target is SHP2 N-SH2 domain wild-type. The assay is described as above. The settings on record: peptide library: pTyr-Var.
On to SWDKRYCEAGF [ITGA2B_Y197], for which the enrichment score is inactive: 0.509.
For the molecule DISEPYKVYRI [IRF8_Y107], the enrichment score was inactive: 0.591.
On the same count and under the same terms, the result for PLFRVYGLESL [INSR_Y94_L89P] reads inactive: 0.801; that for ARLEYYENEKK [IRS1_Y47], inactive: 0.882; that for FCRITYDIFPF [INTS13_Y67_M66T_YF], inactive: 1.8.
Still for that read-out and setting: the result for EVGRVYLFLQP [ITGA2B_Y360] reads inactive: 1.05; that for IMITDYLLLFR [INSR_Y87], inactive: 2.52.
Same read-out and setting: the result for PESCLYKESWL [IQGAP2_Y630] reads inactive: 0.914.
Regarding FQQLFYLLQTN [IQGAP2_Y890_YF], the enrichment score was active: 3.21.
On the same count and under the same terms, the result for RSHLPYDVTPE [IQGAP3_Y1098] reads inactive: 0.765.
On the same count and under the same terms, the result for PESCLYKESWI [IQGAP2_Y630_L635I] reads inactive: 1.36.
Consider EFNLMYDGAKE [IRF6_Y97_T100A], for which the enrichment score is inactive: 0.83.
Take FQQLFYLLQIN [IQGAP2_Y890_T894I_YF]: the enrichment score was active: 3.77.
Still for that read-out and setting: the result for SSNPEYLSASD [INSR_Y999] reads inactive: 0.534; that for RHIEKYVDQGK [IRAK3_Y61], inactive: 1.13.
Still for that read-out and setting: the result for KVGRVYLFLQP [ITGA2B_Y360_E355K] reads inactive: 1.54; that for EPYEVYRIVPE [IRF8_Y110_K108E], inactive: 0.868.
Turning to VSLLPYFPAIM [IPO4_Y518_A513V], the enrichment score was inactive: 1.78.
